By IC50 is meant the dose at which the fit gives 50% viability; fits outside the tested doses are given as limits. The AUC spans the tested range (256-fold, ending at the top dose) of the same fit; it is 1 without any effect and falls as sensitivity rises. Where the top dose is marked as inferred, it comes from the curve model; the source does not state it.
Legend:
Test in all cases: Viability of human cancer cell lines after 72 h of drug (GDSC screen)
XMD8-92 = compound: CCOc1cc(N2CCC(O)CC2)ccc1Nc1ncc2c(n1)N(C)c1ccccc1C(=O)N2C [XMD8-92]; conditions: top dose 10 µM; top dose inferred
Description: (§1)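 Human cancer cell lines in 384-well plates, medium with 10% serum, drug for 72 h over a 256-fold dose range (nine 2-fold or five 4-fold steps up to the top dose). Adherent lines were fixed and stained with the nucleic acid dye Syto60, suspension lines read with resazurin; signal relative to control wells, capped at 0 and 100%. One two-parameter sigmoid per drug and line, fitted in a mixed model over all curves with the slope shared within a line.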

CH5424802 = compound: CCc1cc2c(cc1N1CCC(N3CCOCC3)CC1)C(C)(C)c1[nH]c3cc(C#N)ccc3c1C2=O [CH5424802]; conditions: top dose 5.12 µM; top dose inferred
Description: as §1

ACHP (KIN001-260) = compound: N#Cc1c(C2CCNCC2)cc(-c2c(O)cccc2OCC2CC2)nc1N [ACHP (KIN001-260)]; conditions: top dose 20 µM; top dose inferred
Description: as §1

CAY10603 = compound: CC(C)(C)OC(=O)Nc1ccc(-c2cc(C(=O)NCCCCCCC(=O)NO)no2)cc1 [CAY10603]; conditions: top dose 20 µM; top dose inferred
Description: as §1

Row | Cell Line | AUC (XMD8-92) | IC50 (XMD8-92) [µM] | AUC (CH5424802) | IC50 (CH5424802) [µM] | AUC (ACHP (KIN001-260)) | IC50 (ACHP (KIN001-260)) [µM] | AUC (CAY10603) | IC50 (CAY10603) [µM]
1 | EFM-192A (breast, adherent) | 0.971 | > 10 | 0.983 | > 5.12 | 0.964 | > 20 | 0.625 | 2.87
2 | HCC-15 (lung squamous cell carcinoma, adherent) | 0.918 | > 10 | 0.954 | > 5.12 | 0.957 | > 20 | 0.826 | 16.9
3 | HCC2218 (breast, suspension) | 0.98 | > 10 | 0.952 | > 5.12 | 0.972 | > 20 | 0.563 | 1.94
4 | HCC2157 (breast, suspension) | 0.802 | 5.18 | 0.965 | > 5.12 | 0.986 | > 20 | 0.69 | 4.38
5 | NCI-H2347 (lung adenocarcinoma, adherent) | 0.87 | > 10 | 0.971 | > 5.12 | 0.966 | > 20 | 0.653 | 3.65
6 | LCLC-97TM1 (large cell lung carcinoma, adherent) | 0.902 | > 10 | 0.979 | > 5.12 | 0.843 | 16.2 | 0.487 | 1.15
7 | ESS-1 (endometrium, adherent) | 0.944 | > 10 | 0.947 | > 5.12 | 0.99 | > 20 | 0.478 | 1.1
8 | HuP-T4 (pancreas, adherent) | 0.773 | 4.13 | 0.98 | > 5.12 | 0.972 | > 20 | 0.447 | 0.887
9 | SNU-C5 (large intestine, adherent) | 0.912 | > 10 | 0.984 | > 5.12 | 0.984 | > 20 | 0.614 | 2.67
10 | huH-1 (liver, adherent) | 0.965 | > 10 | 0.984 | > 5.12 | 0.984 | > 20 | 0.949 | > 20
11 | no-11 (glioma, adherent) | 0.956 | > 10 | 0.983 | > 5.12 | 0.969 | > 20 | 0.758 | 8.59
12 | NB-4 (acute myeloid leukaemia, suspension) | 0.823 | 4.54 | 0.949 | > 5.12 | 0.618 | 2.48 | 0.111 | 0.1
13 | SK-MEL-1 (melanoma, suspension) | 0.976 | > 10 | 0.993 | > 5.12 | 0.99 | > 20 | 0.979 | > 20
14 | SIMA (neuroblastoma, adherent) | 0.921 | > 10 | 0.972 | > 5.12 | 0.923 | > 20 | 0.716 | 5.57
15 | LB771-HNC (head and neck, adherent) | 0.834 | 8.95 | 0.982 | > 5.12 | 0.981 | > 20 | 0.78 | 10.4
16 | NB(TU)1-10 (neuroblastoma, adherent) | 0.993 | > 10 | 0.992 | > 5.12 | 0.947 | > 20 | 0.408 | 0.724
17 | RT4 (bladder, adherent) | 0.959 | > 10 | 0.978 | > 5.12 | 0.986 | > 20 | 0.396 | 0.637
18 | L-428 (Hodgkin lymphoma, suspension) | 0.945 | > 10 | 0.992 | > 5.12 | 0.955 | > 20 | 0.991 | > 20
19 | NCI-H446 (small cell lung carcinoma, semi-adherent) | 0.855 | 8.89 | 0.985 | > 5.12 | 0.9 | > 20 | 0.371 | 0.536
20 | MDA-MB-468 (breast, adherent) | 0.966 | > 10 | 0.902 | > 5.12 | 0.973 | > 20 | 0.684 | 3.99

Row | Cell Line | AUC (XMD8-92) | IC50 (XMD8-92) [µM] | AUC (CH5424802) | IC50 (CH5424802) [µM] | AUC (ACHP (KIN001-260)) | IC50 (ACHP (KIN001-260)) [µM] | AUC (CAY10603) | IC50 (CAY10603) [µM]
21 | NUGC-4 (stomach, adherent) | 0.81 | 5.28 | 0.987 | > 5.12 | 0.949 | > 20 | 0.595 | 2.28
22 | EMC-BAC-2 (lung adenocarcinoma, adherent) | 0.848 | 9.62 | 0.974 | > 5.12 | 0.982 | > 20 | 0.509 | 1.33
23 | BE-13 (lymphoblastic leukaemia, suspension) | 0.881 | 9.27 | 0.971 | > 5.12 | 0.847 | 13.3 | 0.141 | 0.105
24 | CHP-212 (neuroblastoma, adherent) | 0.864 | 7.63 | 0.935 | > 5.12 | 0.988 | > 20 | 0.264 | 0.283
25 | NEC8 (testis, adherent) | 0.962 | > 10 | 0.99 | > 5.12 | 0.946 | > 20 | 0.286 | 0.347
26 | C-4-I (cervix, adherent) | 0.937 | > 10 | 0.982 | > 5.12 | 0.986 | > 20 | 0.969 | > 20
27 | HT-115 (large intestine, adherent) | 0.974 | > 10 | 0.991 | > 5.12 | 0.991 | > 20 | 0.651 | 3.14
28 | MOG-G-UVW (glioma, adherent) | 0.938 | > 10 | 0.987 | > 5.12 | 0.981 | > 20 | 0.374 | 0.568
29 | GP5d (large intestine, adherent) | 0.881 | 8.58 | 0.967 | > 5.12 | 0.969 | > 20 | 0.608 | 2.39
30 | RCC-ER (kidney, adherent) | 0.919 | > 10 | 0.983 | > 5.12 | 0.986 | > 20 | 0.735 | 6.4
31 | MDA-MB-330 (breast, adherent) | 0.955 | > 10 | 0.983 | > 5.12 | 0.983 | > 20 | 0.612 | 2.66
32 | LB2518-MEL (melanoma, adherent) | 0.956 | > 10 | 0.987 | > 5.12 | 0.986 | > 20 | 0.64 | 3.12
33 | EW-16 (Ewing sarcoma, adherent) | 0.96 | > 10 | 0.971 | > 5.12 | 0.923 | > 20 | 0.347 | 0.461
34 | EoL-1-cell (haematopoietic neoplasm, suspension) | 0.863 | 7.05 | 0.947 | > 5.12 | 0.834 | 11 | 0.268 | 0.301
35 | RL95-2 (endometrium, adherent) | 0.821 | 5.71 | 0.987 | > 5.12 | 0.972 | > 20 | 0.422 | 0.764
36 | GI-ME-N (neuroblastoma, adherent) | 0.703 | 2.9 | 0.966 | > 5.12 | 0.898 | > 20 | 0.35 | 0.411
37 | MDA-MB-175-VII (breast, adherent) | 0.986 | > 10 | 0.979 | > 5.12 | 0.968 | > 20 | 0.748 | 7.02
38 | KM12 (large intestine, adherent) | 0.964 | > 10 | 0.943 | > 5.12 | 0.937 | > 20 | 0.592 | 2.28
39 | MN-60 (B-cell leukaemia, suspension) | 0.828 | 6.46 | 0.893 | > 5.12 | 0.942 | > 20 | 0.426 | 0.779
40 | OS-RC-2 (kidney, adherent) | 0.975 | > 10 | 0.956 | > 5.12 | 0.968 | > 20 | 0.621 | 3.12

Row | Cell Line | AUC (XMD8-92) | IC50 (XMD8-92) [µM] | AUC (CH5424802) | IC50 (CH5424802) [µM] | AUC (ACHP (KIN001-260)) | IC50 (ACHP (KIN001-260)) [µM] | AUC (CAY10603) | IC50 (CAY10603) [µM]
41 | RCC-AB (kidney, adherent) | 0.908 | > 10 | 0.937 | > 5.12 | 0.938 | > 20 | 0.352 | 0.428
42 | NB5 (neuroblastoma, adherent) | 0.923 | > 10 | 0.983 | > 5.12 | 0.951 | > 20 | 0.512 | 1.34
43 | EMC-BAC-1 (lung adenocarcinoma, adherent) | 0.929 | > 10 | 0.83 | 3.83 | 0.953 | > 20 | 0.592 | 2.31
44 | SNU-C1 (large intestine, suspension) | 0.905 | > 10 | 0.979 | > 5.12 | 0.974 | > 20 | 0.707 | 6.4
45 | RCC-MF (kidney, adherent) | 0.917 | > 10 | 0.888 | > 5.12 | 0.944 | > 20 | 0.398 | 0.604
46 | SNU-387 (liver, adherent) | 0.863 | > 10 | 0.983 | > 5.12 | 0.782 | 9.63 | 0.343 | 0.429
47 | LS-180 (large intestine, adherent) | 0.983 | > 10 | 0.982 | > 5.12 | 0.985 | > 20 | 0.651 | 3.51
48 | Hs-445 (Hodgkin lymphoma, suspension) | 0.888 | 9.87 | 0.988 | > 5.12 | 0.898 | > 20 | 0.405 | 0.702
49 | Hs939-T (melanoma, adherent) | 0.943 | > 10 | 0.986 | > 5.12 | 0.981 | > 20 | 0.816 | 12.4
50 | BL-41 (Burkitt lymphoma, suspension) | 0.882 | 6.38 | 0.939 | > 5.12 | 0.892 | 13.8 | 0.227 | 0.26
51 | AU565 (breast, adherent) | 0.929 | > 10 | 0.977 | > 5.12 | 0.959 | > 20 | 0.551 | 1.75
52 | KCL-22 (chronic myeloid leukaemia, suspension) | 0.908 | 9.96 | 0.988 | > 5.12 | 0.907 | 19.6 | 0.352 | 0.526
53 | CADO-ES1 (Ewing sarcoma, suspension) | 0.96 | > 10 | 0.982 | > 5.12 | 0.916 | > 20 | 0.344 | 0.456
54 | NB13 (neuroblastoma, adherent) | 0.916 | > 10 | 0.99 | > 5.12 | 0.928 | > 20 | 0.272 | 0.308
55 | KMH-2 (thyroid, adherent) | 0.861 | 7.05 | 0.989 | > 5.12 | 0.99 | > 20 | 0.684 | 3.82
56 | NCI-H524 (small cell lung carcinoma, suspension) | 0.965 | > 10 | 0.989 | > 5.12 | 0.99 | > 20 | 0.788 | 7.77
57 | HSC-2 (head and neck, adherent) | 0.874 | 8.47 | 0.987 | > 5.12 | 0.989 | > 20 | 0.698 | 4.28
58 | OVCAR-4 (ovary, adherent) | 0.917 | > 10 | 0.965 | > 5.12 | 0.959 | > 20 | 0.829 | > 20
59 | HCC-56 (large intestine, adherent) | 0.936 | > 10 | 0.925 | > 5.12 | 0.941 | > 20 | 0.408 | 0.694
60 | M059J (glioma, adherent) | 0.884 | > 10 | 0.985 | > 5.12 | 0.821 | 12.8 | 0.582 | 2.14

Reference: the supplement of paper PMC4967469
